Laboratory results as given in the supplement of paper PMC10600219.
Structures can show the parent of a compound that is named as a salt. Over roughly 2,800 compounds, “cell viability relative to vehicle” has its median near 1.1; the lowest 2% begin near 0.19. Some of the results follow.

These compounds were tested on NCI-H2228 parental (assay: cell viability relative to vehicle (fraction of vehicle); NCI-H2228 is an ALK-positive lung cancer line and DTP means drug-tolerant persister; higher = less growth inhibition). Details: 100 nM; treatment time 6 days.
Summary of the method: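 Values give cell viability as a fraction of vehicle-treated cells. Parental and drug-tolerant persister NCI-H2228 cells (persisters made with 1000 nM of a targeted drug for 13 days) were exposed in 384-well plates to the 3114-agent TargetMol anti-cancer compound library at 100 nM, with DMSO as vehicle. ATP was then read after 6 days by the CellTiter-Glo 3D Cell Viability Assay.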

Row | SMILES | cell viability
1 | CCCCN1CCC(CNC(=O)c2c3n(c4ccccc24)CCCO3)CC1 [Piboserod] | 1.22
2 | CCNC(=O)[C@@H]1CCCN1C(=O)[C@H](CCCNC(=N)N)NC(=O)[C@H](CC(C)C)NC(=O)[C@@H](CC(C)C)NC(=O)[C@H](Cc1ccc(O)cc1)NC(=O)[C@H](CO)NC(=O)[C@H](Cc1c[nH]c2ccccc12)NC(=O)[C@H](Cc1c[nH]cn1)NC(=O)[C@@H]1CCC(=O)N1 [Leuprolide Acetate] | 0.864
3 | CC(C)Cn1cnc2c(N)nc3ccccc3c21 [Imiquimod] | 1.05
4 | CN[C@H](CNC(=O)N1CCC[C@@H]([C@@H](OCCNC(=O)OC)c2cccc(Cl)c2)C1)C[C@H]1CCCOC1 | 1.04
5 | COc1ccc(-c2coc3cc(O[C@@H]4O[C@H](CO)[C@@H](O)[C@H](O)[C@H]4O)ccc3c2=O)cc1O [Calycosin-7-O-beta-D-glucoside] | 1.06
6 | Oc1nc(-c2ccc(C(F)(F)F)cc2)nc2c1CSCC2 | 1.02
7 | COc1ccc2c3c1O[C@H]1C[C@@H](O)C=C[C@@]31CCN(C)C2 [Galanthamine HBr] | 1.12
8 | CCCC(=O)O[C@]1(C(=O)CO)CC[C@H]2[C@@H]3CCC4=CC(=O)CC[C@]4(C)[C@H]3[C@@H](O)C[C@@]21C [Hydrocortisone butyrate] | 0.825
9 | Cc1nnc(SCC2=C(C(=O)O)N3C(=O)[C@@H](NC(=O)Cn4cnnn4)[C@H]3SC2)s1 [Cefazolin sodium salt] | 1.27
10 | Cc1cc(C#N)cc(C)c1Oc1nc(Nc2ccc(C#N)cc2)nc(N)c1Br [Etravirine] | 1.25
11 | COC(=O)c1ccc(O)c(O)c1 [Methyl protocatechuate] | 0.886
12 | O=c1[nH]c(=O)n([C@H]2C[C@H](O)[C@@H](CO)O2)cc1C(F)(F)F [Trifluridine] | 0.889
13 | c1cc(CN2CCCNCCNCCCNCC2)ccc1CN1CCCNCCNCCCNCC1 [Plerixafor] | 0.972
14 | O=C1OC(=O)[C@H]2[C@@H]1[C@@H]1CC[C@H]2O1 [Norcantharidin] | 0.995
15 | CC(=O)O[C@@H]1CC[C@@]2(C)[C@@H](CC[C@]3(C)[C@@H]2C(=O)C=C2[C@@H]4[C@@H](C)[C@H](C)CC[C@]4(C)CC[C@]23C)[C@@]1(C)C(=O)O | 1.04
16 | CC(C)n1cnc2c(NCCc3ccc(O)cc3)nc(-c3csc4ccccc34)nc21 [StemRegenin 1] | 1.1
17 | O=C(NNc1ccccc1)c1ccncc1 [PluriSln 1] | 1.06
18 | CCNC(=O)c1cc2c(-c3cc(OCCN4CCCC4)c(Cl)cc3Cl)nc(N)nc2s1 | 1.06
19 | Cc1ccccc1C(=O)Nc1ccc(C(=O)N2CCCC(N(C)C)c3ccccc32)cc1 (centres undefined) [Mozavaptan] | 1.1
